Assay results: the supplement of paper PMC3334620
The full ranking holds about 33,000 sequences; the median of “E-score (-0.5 to 0.5)” is about -0.017, and the highest 2% start at about 0.3. The list shows a part of the results.

The sequences below were run against T1, Sut1 (UniProt P53032) (assay: PBM E-score (8-mer binding enrichment) (E-score (-0.5 to 0.5)); higher = stronger / more preferred TF binding; most listed sequences are background and not binding sites). Details: protein concentration: 200 nM; construct: GST-full length.
T1 sequence: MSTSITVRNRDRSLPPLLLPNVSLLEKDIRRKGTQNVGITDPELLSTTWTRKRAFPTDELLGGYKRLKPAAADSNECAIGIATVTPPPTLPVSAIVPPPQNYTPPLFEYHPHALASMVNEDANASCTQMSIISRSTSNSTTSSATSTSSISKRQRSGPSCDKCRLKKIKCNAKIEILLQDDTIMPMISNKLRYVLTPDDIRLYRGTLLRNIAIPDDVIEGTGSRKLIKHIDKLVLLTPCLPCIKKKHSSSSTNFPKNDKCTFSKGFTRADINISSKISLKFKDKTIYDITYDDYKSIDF
Summary of the method: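 Yeast transcription factors, full-length or as DNA-binding domains, were expressed with a GST tag using PURExpress in vitro transcription/translation. At about 100-200 nM they were applied to universal all-10-mer Agilent arrays, double-stranded by primer extension on fresh or once-stripped slides. Fluorescent anti-GST detected bound protein, and masliner normalised the scans. E-scores for ungapped eight-base words, pooled with reverse complements, came from the Universal PBM Analysis Suite.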

Sequence	PBM E-score
CTTATAAG	0.178
GAATGAAA	0.181
CGGTGTCA	-0.115
ACTAGATG	-0.0398
CTTTTCGC	0.127
TCAAAACA	0.213
CCTGCCAC	-0.162
TCCGACAA	0.337
CGGGTGAG	-0.0499
TATAAGAA	0.153
ATGCTCTA	-0.102
AATTTGTC	0.0669
CGAGAACA	-0.0245
GATATGCC	-0.245
CAGATAGA	-0.164
CCGAGCAA	0.047
CCGCACCA	-0.0881
CCGTGGTC	-0.206
GGAAGCCA	-0.12
CGTAGTGC	-0.117
CCGAAACG	0.198
ATAGGCTC	0.0537
CCAAGAGC	-0.228
CCGGGAGA	0.126
GTCTTAAC	-0.0591

Sequence	PBM E-score
CAATTTAC	0.185
CCCCAGTA	-0.109
AGTGATCC	-0.0238
TAAACTAA	0.323
CGAAGAAA	0.297
GCCCACGC	-0.281
ACGGGTGA	-0.0761
CGTCTTCA	-0.00678
AAATGTAC	0.135
ACGAGTCA	-0.254
CATAATTC	0.0494
TCACACCA	0.0501
ACACTATC	0.0365
GACGACTA	-0.0927
AGCCGGTC	-0.166
CCTCTCCA	-0.307
CAGAATGC	-0.126
AAATTCCG	0.337
TGCCGGAA	0.188
GATCCACA	-0.0356
GCTGTTTA	0.19
GCCCATTA	-0.269
ATCTCGGC	0.13
ACAATAAG	0.139
GACAAACC	0.0113

Sequence	PBM E-score
CAAAAAAC	0.221
ACTTGGGG	-0.203
GCAACTGC	0.145
CCAGAGAA	-0.186
AATGCCCA	-0.116
TACAGAGA	-0.0918
CGTTCCAG	-0.163
ACACTGGC	-0.14
CGCCAGCC	-0.103
GGGAAGCA	-0.15
CGGCGGAC	0.177
CTTCTTGC	0.0337
ACGCCCCA	-0.0312
CGCGGCCG	-0.252
GTGCTTCA	0.0662
AGTATAGA	0.124
CCTTCTAC	-0.116
AAGACAAT	0.132
AATGTACG	0.0713
ACAGTTCC	0.14
ACTACTAC	0.133
ATCGTCTC	0.00275
TGCATGCA	0.158
AGCTCGTA	-0.053
CGGGTGTA	0.0214

Sequence	PBM E-score
TACAGCGA	-0.145
CTTGTACC	-0.00745
GCTTTCCC	-0.202
AAGGTTAC	0.0475
ATTCAATG	0.0697
AAATGGCT	-0.0329
GCCCGGCA	-0.106
ATGGGAGG	-0.213
CTCAACGA	-0.123
ATGACGCA	0.0733
GAATCCTC	-0.19
CCCAGCTC	0.03
CAGAGTCC	0.17
CGTGGCAC	-0.0707
ACGTACAA	0.101
CTTTAGGC	0.045
CCCTAGCC	-0.265
AAGGTCGG	0.0135
CCCACTAA	-0.054
ACACATCT	0.0842
AGCTTCTA	0.155
AATAAGTG	0.0224
AAGTAGAG	-0.116
GGGCTGAC	-0.131
ACGGGTAC	-0.197

Sequence	PBM E-score
CTATTACC	0.00941
CCAGTGGC	-0.265
TAAAATGA	0.251
ACCGACTC	-0.0026
CGTTCGAC	-0.0661
TACCAGAA	0.155
AGAAATGA	0.254
ATGACCCC	-0.0869
CGAACATA	0.196
CTATGTGA	0.097
AGGTTAGC	-0.164
AGAACACA	-0.0911
TAGACCAA	0.089
GCACCTAC	-0.331
GGATCCCA	-0.0879
CAGTCAAG	-0.195
ATTGCGCC	0.0208
AGCGGCTA	-0.0161
TCAATGAA	-0.0127
AGACATAG	0.116
ACTTGGAC	0.0102
CCGCTGAG	-0.149
GGGGGGAC	-0.435
ACCTGCCG	-0.186
ACCTTCTC	0.0652

Sequence	PBM E-score
CAGTGATG	-0.202
AAAAAATC	0.21
GTCAGGCA	-0.16
ATCTACGG	0.0683
CGGATACG	-0.0139
ACAAAGAG	-0.063
CAGTCGGC	0.0364
CCTCGTAG	-0.185
GTACTTGA	0.0573
CGCGGCAA	0.0233
ATTTCATA	0.226
ACTACATG	0.136
CGTTGCTA	-0.00565
AGTTCGTG	-0.0943
AGCTATCG	-0.181
CGTGTTGA	0.0354
CTTAACGA	0.177
AGCTCACT	-0.0799
CCAGCCAA	-0.0941
AGGTGCCG	-0.0892
GCCGAAGC	0.0147
ATGCCCAG	-0.129
CAGTAAGC	-0.0843
CGCTAAAC	0.0389
CCGTAGAG	-0.0905

Sequence	PBM E-score
CGGAAGTA	0.111
GATAATAA	0.234
CGGGCATC	-0.286
GATATTGC	-0.043
CCCCACCG	-0.0479
AATGAGCA	0.0424
AGCCCCAG	-0.149
GAAAACCC	-0.0463
CGTTCTTC	-0.0254
GCGAAGAC	-0.0548
GTTCACCA	-0.057
AATTCATC	0.0609
ACAGGTTA	-0.176
CCCAACCA	-0.0292
ACGGGAGA	-0.0376
ATTCAAAC	0.226
AGTAGTCG	-0.0051
ATGTCCAA	0.0958
TATGCTCA	0.0591
TGCGTAAA	0.00721
GCTGTGAA	-0.111
CCTTGCAA	-0.285
ATAGTTGG	-0.0612
AGTCCGAA	0.49
AATAAGAG	0.177

Sequence	PBM E-score
ACCGGGAC	0.0957
GTGACGAA	-0.0161
CCCAAGGG	-0.376
AGGAGTAC	-0.106
CACCATTC	-0.0539
ACCAATGA	0.0555
AATTTTAT	0.317
ACCATGCT	-0.126
CAAGTTTC	0.11
CTAGCTGC	-0.239
GGCTGCTA	-0.114
CCGCCCTC	-0.162
GCACTAGC	-0.242
GACCAATA	-0.0611
AGTGCCAT	-0.0832
CCGTCGGA	0.2
AGAGCAGC	-0.218
CAACTCGG	-0.0767
TCCATTCA	0.022
GACTGACC	-0.213
ACCCACAA	0.207
AGCGGTCG	-0.271
ACCTCCCA	-0.318
AAACTTGC	0.158
ATGTTCTA	0.0598

Sequence	PBM E-score
ATACGTCA	0.0754
CACGTACC	-0.0307
ACCAGCCA	-0.235
ATCGGCCA	-0.205
CGTGTCAC	-0.0273
GACGACGC	-0.256
AAGGCATT	-0.163
CCTTATTA	0.147
AATTGACT	0.204
ACCCACTC	0.00249
CCCCAGAG	-0.386
CAGGACTC	-0.158
AAAGGTGT	-0.0578
ACACCAGA	0.0261
CCAAGGGC	-0.0869
AAACGTTA	0.114
CGGAACCG	0.144
CGTAACCA	0.0298
CCTTCCCC	-0.118
CGCATGTC	-0.138
GATACATA	0.101
AATGGGAT	0.104
CACGAGAG	-0.256
CTAATCTC	0.141
TCAGCTAA	-0.00754

Sequence	PBM E-score
GACCTGAA	0.124
CGCGCGAG	-0.111
AGAACAAA	0.226
CAGCTAGC	-0.234
AAAGTGGG	0.0173
AATTATAT	0.212
AATGGACT	0.0013
CTGACTGA	-0.167
CGGTTTAC	0.00822
TTTAGAAA	0.291
CGATCTCC	0.145
GCTCTATA	0.133
AGTCCTGA	-0.109
ACTGCACC	-0.137
CACGCAAG	-0.131
GTTAGTCA	-0.0461
CGGGGACA	-0.0417
GTTTGCCA	-0.0664
AAACCCAT	0.165
ACGAGACG	-0.147
AACCGTGT	0.0158
AGTGCCGG	0.0642
ATGATGGG	-0.276
GCGTCAAC	0.00012
ATAGCAAG	0.125

Sequence	PBM E-score
AGCTTGAT	0.0197
CACTAAGC	-0.105
ATGCGCTA	-0.0278
CCGCGTAA	-0.0488
CTTAAGAC	-0.11
CATTGAGC	-0.0414
TAGTCAAA	0.168
TTACGGAA	0.198
CGAAGAGC	0.141
ACGGTCCT	-0.258
CGATCTTA	-0.0415
CAACTCAA	0.18
CGATGCGC	-0.106
CGTAAAAG	0.1
AACGATAT	0.233
CTGAGGCA	-0.194
AAAATCGA	-0.135
GCGTCTGA	-0.138
AAAATCCG	0.246
ATACTATA	0.238
CGGATTCC	0.096
AGGTAACC	-0.158
ACACCAAA	0.0955
GCACGTGC	-0.0247
GCTGGAAC	-0.227

Sequence	PBM E-score
AAAACAAA	0.312
CGTCACGC	-0.112
CCCGATCC	-0.201
GCATTTAC	0.0466
AATAGTTG	0.159
GAGGGCGA	-0.391
CTGATTCC	-0.0283
CAGAGGTC	-0.314
CACGCCAC	-0.174
AAGCACGA	-0.0741
GGGAAAAA	0.212
AGCCCACC	-0.177
ACATTGAT	0.108
AGTTGCCC	-0.0388
AGGAAGTC	-0.0456
AAGGCAAG	-3e-05
AGTAGATA	0.23
GCCCGACC	-0.185
AGTAATGA	0.0306
CGCGCCTC	0.0917
AAGTCAGT	0.149
CGAGGAGA	-0.198
ATCTGTGC	-0.23
ACAGCGCG	-0.136
GATCATGC	-0.142

Sequence	PBM E-score
GTTCCAAA	0.1
ACCTCGAC	-0.163
CTAGGGTA	-0.205
ATTCTATC	0.103
AGGACACC	-0.253
AATAGCAG	0.0845
AATCGGTG	0.0417
ACCGCTGA	-0.0563
GGCATATA	0.0338
AGGTGGGA	-0.201
AATAAACA	0.216
ACGTTGTG	-0.0245
CGGCGACA	-0.166
AATGGGAG	-0.0748
GACTCCGA	0.486
ACGTCTCC	-0.0319
GAGAAATC	0.16
CCAAACGC	-0.202
TGGGTAAA	0.0215
TAAAAACA	0.188
ACCCGATG	-0.165
GCACAGCC	-0.202
ATCTTTGA	0.131
GCCGACAA	0.064
AAGCCCGT	-0.0772

Sequence	PBM E-score
AAGACTAG	-0.15
GTCTTGAA	0.122
CTTCAGCA	-0.109
AAGGGAGC	-0.218
ACCTGAAA	0.0304
ACTTCCGG	0.233
CAGCGGTC	-0.185
GATAAAGC	0.016
AAGCATGT	0.0702
CCCAGTCA	-0.163
CCGGATCC	0.141
GGGTGTAC	-0.0844
ACCTGACA	-0.123
ACTATGTG	0.0329
ATTACTGG	-0.0106
GTAGTCGA	0.0978
AGTACATG	0.0629
ACAGTCTC	-0.112
CGCGAAGC	-0.0203
